Test results published in the supplement of paper PMC10126150.
Values marked as one replicate rest on one cluster of the flow cell; about a third of the high ones do not repeat.

Tested on: ATP
Assay: switch fluorescence ratio, 500 uM ATP over buffer (Cy3 cluster intensity, sum of 5 cycles each) (fold (ratio)); higher = stronger signal-on switching upon ATP binding; sequences stand for … in TCGTCGGCAGCGTCAGATGTGTATAAGAGACAGTTTTTTTTTTTTTTTTTTTTTTTTT…TC
Conditions: aptamer strand: ATP DNA aptamer (quencher-CACCTGGGGGAGTATTGCGGAGGAAGG + anchor), 100 nM annealed; ATP concentration: 500 uM; one replicate
How it was run: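 Cy3-labelled switching-strand clusters on a modified Illumina MiSeq flow-cell were annealed to 100 nM quencher-labelled ATP aptamer, imaged in selection buffer, then imaged after 15 min with 500 uM ATP at 22 °C. Five buffer/ATP cycles ran, with NaOH stripping and re-annealing between them. The fluorescence ratio is summed target-cycle over summed buffer-cycle Cy3 intensity per cluster, averaged per switch-domain sequence. Clusters outside 100-1000 RFU were excluded.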
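Further: ATP exposure 15 min at 22 °C before imaging.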

Sequence	switch fluorescence ratio
TGTAATTTTA	0.983
GTTCAAAAAA	1
TCGTCCCGAG	0.958
TACTACGTTA	1.24
TGGAAATTAT	1.09
AACCATATCG	1.03
GGTAGACTT	1.02
CTGATTTGG	0.967
TAATGCGCGC	1.07
AGGAGCACTG	1.16
TGAATTGCT	1.03
TTAATCGACT	1.03
GTGGATACAT	0.953
ATAGCCTTCG	1.37
AAGGTTTAAT	1.01
CTTCATGTTG	0.994
GGAATATTGT	1.02
AGGCCACAAT	1.12
AAAGCGGCCG	0.97
AGATAGTGTG	1.04
CAGCTGTTAC	2.33
TCCATCCATG	1.03
TTGAACTAG	0.993
TTCCTCTCTT	1.02
ACCGGCCGGT	1.01
AAGATTTCG	1.02

Sequence	switch fluorescence ratio
AAACCACGGA	1.64
CCAGGGAGGA	1.04
TGAAAAGTAC	1.34
GAAACAGATT	1.03
GGCACTGGTG	1.14
GGGTAAACGC	0.981
TGTTTCTGCA	1.1
CGACGCGGCC	1.06
CACATGAGAC	1.03
TTACGAACGA	0.956
GCCTAGTG	1
TGGTACGGAA	1.13
CGTCTTGTGA	0.973
TGTTATTGCC	0.972
TGATCAATTC	1.03
TGCGTTCCAA	1.03
CGGTCACTTA	1.04
AACCAGGTAC	1.14
GCTTTGGCAC	1
ATTAGTTTGG	0.996
CTTCGGTGC	1.12
ACGGGAAGTA	1.04
TTTACCGTT	0.937
CAATAGTGTA	0.974
TTCTAATCGT	0.986
CTAGCGAGAA	1.08

Sequence	switch fluorescence ratio
AGTACATTAG	1.04
TGACGACTAA	1.22
CGAGTTCTTA	0.979
CGGTCACAGC	0.978
TCTGAGGACG	1.01
AATGGCTGAT	1.01
CGAGTCGAT	0.964
TATAACGATG	1.04
AGGCGCCCAA	0.957
GCACAGATTG	0.965
CAGGACTACC	1.05
TTAATGGGAA	0.967
CGCACTTTTT	1.09
CTGCCTGGGA	1.05
CGAGGACGGA	1.07
GGCCTAAGAA	0.963
AACAGGCGCC	1.02
GTCGTGGGGA	1.04
AACGCCGCCG	0.992
AAGCGCATAG	1.17
GACTGTCGCT	0.927
TTTCTGGTTA	1.04
GGCTTATGG	0.981
TCAGACGGA	1.05
TTAATGGCTG	0.979
ACCTAATCGG	1.02

Sequence	switch fluorescence ratio
GGAGTAGGGC	0.887
AGTTGTTCCT	1.03
TTAAACGCAC	1.77
CCCTTGGGGA	1
TTCTCCATTG	0.985
AGTTTCTGCA	0.978
GCGTAGTGAA	1
ATAGATTCGA	0.997
CTTGTTTTTC	1.03
GGGATTAATA	1.02
AACGTTGATG	1.01
TAGGAGCACG	1.16
TTAATCTCGC	1.01
CGAACCCAAG	1.1
CATCAGTAGA	1.04
TGTGTCAACC	0.988
AGCGAGCTAG	1.01
TAGAACGAG	0.996
ACGCACGTTC	1.47
GCTGGCCCGA	0.993
AATCAATGAA	1.05
CTGTCATATC	1.17
GGTTCAGACG	0.975
TAAGCCTGCT	1.03
TCTGTTGTTA	0.955
TGAGTAATGT	0.999

Sequence	switch fluorescence ratio
CTCGCATAAT	2.69
CGTCACGGCG	1.03
GCGGAAGGC	1.06
GGGTGGAAGG	0.996
AATAATATAC	1.11
GGATTCGTTA	1.02
GAGAGCAAT	4.12
CTGTGAGGGG	0.967
GACAACAACA	1.07
TCAGCGTGTT	0.997
CTCAAAGGGT	1.03
TTGATATAC	1.17
TCAATCAACT	1
CATTTCCTTC	1.08
GGTGACTACT	1.03
GGTGACTGAA	0.998
GAGAACCCGT	0.967
ACGGAATGGT	1.17
CCGTGTAAGT	0.974
AATGACTTCC	2.71
GATTGTCTTG	1
GCTGTATCTC	1.02
ACCTTCGGCG	1.33
TCGGCCCGAG	0.997
AGGTCAAAAT	1
TCGTATACGC	1.01

Sequence	switch fluorescence ratio
GGATACTTTG	0.995
GAATTATGGG	1.1
TGGCTAGGCT	0.996
GTATGATAAG	0.948
CACATGAGTG	0.971
CCGAAGAGGG	1.31
TAGTTTACT	0.985
GGGTTATACT	0.988
ATCTTGGTGG	1.01
TTGGTCCCGG	0.975
TCCTGTTTCG	1
TCTATTAGTC	1.02
GAATACTGAA	1.03
AGCTGAGGG	0.977
TATGGTATTT	0.947
GTTTGTTCAC	0.983
ATTGTGCCCC	0.99
AATTATTGAA	0.976
GGTTCGGAGA	0.976
AAACGCCGAG	1.06
GTTGGCCCAC	1.12
ATTTTTAATG	0.99
AGAAACTCGG	0.988
CAATGGCGAT	0.941
TAAACGTTTT	1.27
TCCTCAACGG	1.15

Sequence	switch fluorescence ratio
GCGATGGCGC	0.992
CAGCGCGATC	3.49
CTTGAGCGG	0.971
CAGATAACTC	1
CAATTGCACC	1.04
CTGCTTGTGG	1.04
TGCAACGGGG	1
AATTAGCGCT	1.01
GCGTGTAAC	1.01
ATAATCATGT	0.97
TGCACGACTA	1.04
TTACGCGGTA	1.13
GACGACGCCG	1.07
ATCCGGTGCG	1.03
GGGTCGTCGA	0.994
TTACGACTGC	1.17
GTACATATTA	1.05
AGTTCTTGCG	1.01
AATGTGCACA	0.981
TAGACACCTC	0.946
GCTGTTTGGC	0.959
GCCGATCCTA	0.999
AGCATGGGCA	0.986
CAGCCCATAG	1.09
AGAAGATAAT	1.04
TACTCTACCA	1.35

Sequence	switch fluorescence ratio
CAACTGCGCA	1.17
CAAGTAACCA	1.13
CTTGGTTGCA	1.02
GCTAAAGAAC	0.996
ACTCGGCCGA	1.05
GCTTGTACAG	0.972
ATTAGATTC	0.99
CACGTGCTGA	0.925
AGTCGCTGGG	0.953
TATGGTAAGA	0.995
CATTCATTGC	1.03
ATGGCTCCGC	1.66
TGCAAGCCG	1.07
GTAACCCGGT	0.974
TCGGTAGTAG	1.02
CGTTGCCCTG	0.943
GTACGCCGCA	1.1
CCCTATTCA	0.999
GAGGTGTAAC	0.998
